# Measurements as given in paper PMC4336329 (PLoS ONE, 2015).
# Screen size: about 310,000 compounds; about 14,000 (4.5%) showed an effect of 50% or more. Effects have a minus sign here. This is one part of the list.
# Biological target: human ether-à-go-go-related gene (hERG) potassium channel (human, UniProt Q12809)
# Assay: primary screen, population patch clamp on CHO cells stably expressing hERG
# 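Note: peak tail current of the secondary pulse compared with the same well before compound.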
# Chain of human ether-à-go-go-related gene (hERG) potassium channel (Q12809 whole entry, looked up): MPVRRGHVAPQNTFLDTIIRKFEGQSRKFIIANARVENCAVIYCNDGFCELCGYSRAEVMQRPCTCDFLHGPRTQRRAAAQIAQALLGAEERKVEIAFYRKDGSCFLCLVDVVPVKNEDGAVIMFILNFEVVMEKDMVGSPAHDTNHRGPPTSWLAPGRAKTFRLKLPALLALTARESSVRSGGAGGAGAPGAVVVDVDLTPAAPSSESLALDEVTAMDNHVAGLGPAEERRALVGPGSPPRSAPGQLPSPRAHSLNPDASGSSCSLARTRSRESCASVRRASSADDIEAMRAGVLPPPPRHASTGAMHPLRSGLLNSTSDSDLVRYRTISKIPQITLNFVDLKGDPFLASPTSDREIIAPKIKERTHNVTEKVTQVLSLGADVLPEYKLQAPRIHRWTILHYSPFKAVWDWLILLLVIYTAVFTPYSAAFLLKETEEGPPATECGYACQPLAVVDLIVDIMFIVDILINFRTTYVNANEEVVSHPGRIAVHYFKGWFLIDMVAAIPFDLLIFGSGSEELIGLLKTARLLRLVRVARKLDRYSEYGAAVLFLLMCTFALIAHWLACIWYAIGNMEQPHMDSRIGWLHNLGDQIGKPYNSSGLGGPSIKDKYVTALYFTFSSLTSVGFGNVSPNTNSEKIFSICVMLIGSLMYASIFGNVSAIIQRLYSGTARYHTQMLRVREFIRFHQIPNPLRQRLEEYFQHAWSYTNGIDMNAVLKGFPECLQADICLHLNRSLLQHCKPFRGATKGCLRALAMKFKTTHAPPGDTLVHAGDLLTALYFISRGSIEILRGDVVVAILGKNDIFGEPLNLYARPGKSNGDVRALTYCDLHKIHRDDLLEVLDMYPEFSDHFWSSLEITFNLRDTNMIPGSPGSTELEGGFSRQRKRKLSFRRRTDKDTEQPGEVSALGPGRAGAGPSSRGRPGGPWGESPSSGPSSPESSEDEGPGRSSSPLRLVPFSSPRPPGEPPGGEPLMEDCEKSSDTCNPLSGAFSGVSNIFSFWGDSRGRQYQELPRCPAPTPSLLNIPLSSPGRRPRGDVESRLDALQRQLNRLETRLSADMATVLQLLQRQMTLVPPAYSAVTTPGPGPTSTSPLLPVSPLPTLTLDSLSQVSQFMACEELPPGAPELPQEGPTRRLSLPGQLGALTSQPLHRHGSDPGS
row,SMILES,"hERG current change (%, negative = inhibition) at 10uM [%]"
1,O=C(CCCn1c(SCC(=O)NCC2CCCO2)nc2ccccc2c1=O)NCC1CCCO1 (centres unmarked),-5.18
2,O=C(NC(=S)NNC(=O)c1ccccc1F)c1cccnc1,19.7
3,COc1cccc(-n2c(N)cc(=O)nc2SCC(=O)Nc2cc(C)on2)c1,18.6
4,COc1ccc(-c2nc(CSCC(=O)NCc3ccc4c(c3)OCO4)c(C)o2)cc1OC,-29.3
5,O=C(N/N=C/C=C/c1ccccc1)NC1CCCCC1,-2.61
6,O=C(COc1ccc(Cl)cc1)Nc1ccccc1C(=O)NCc1ccco1,4.32
7,CCOC(=O)c1sc2nc(C)nc(Nc3ccc(OC)c(OC)c3)c2c1C,23.5
8,O=C(/C=C(\c1ccccc1)n1cncn1)c1ccccc1,3.01
9,COc1ccc(Cl)cc1C(=O)NCc1ccc2c(c1)OCO2,0.693
10,Cc1cc(C(=O)NNC(=O)c2cccs2)c(C)o1,7.06
11,CCN(CC)CCCNC(=O)c1ccc2c(Cl)c3c(nc2c1)CCCC3,-48.7
12,O=C(c1ccc(Cl)cc1)c1cc([N+](=O)[O-])ccc1N1CCOCC1,-32.4
13,O=C(c1ccccc1)c1cccc(NC(=O)c2ccc(Br)o2)c1,-61.1
14,COc1ccc(Sc2nc(-c3ccccc3)ncc2OC)cc1,41.5
15,O=C(CNC(=O)c1ccc(Br)cc1)NCC(=O)OCC(=O)c1ccccc1,9.85
16,CC(C)(C)C(=O)C(Oc1cccc2nonc12)n1cncn1 (centres unmarked),-21.7
17,CC(C)(C)c1ccc(C(=O)c2c[nH]c(C(=O)NCc3cccs3)c2)cc1,22.4
18,CC1CCC(NC(=O)c2cc3c(=O)n(C)c4ccccc4c3n2C)CC1 (centres unmarked),-13.9
19,Cc1ccc(Cl)cc1NC(=O)c1ccccc1OCC(=O)N1CCOCC1,-63.6
20,Cc1ccc(N=CC2=C(O)CC(c3cccc(Cl)c3)CC2=O)cc1 (centres unmarked),0.836
21,c1ccc(N2CCOCC2)c(Nc2nc3ccccc3n3cnnc23)c1,-2.53
22,CCOc1ccc(NC(=S)NN2CCN(C)CC2)cc1,7.15
23,Cc1ccc(S(=O)(=O)N2CCOCC2)cc1C(=O)c1nccn1C,5.59

row,SMILES,"hERG current change (%, negative = inhibition) at 10uM [%]"
1,COc1ccccc1CCC(=O)Nc1nccs1,20.1
2,O=C(CCc1nc2ccccc2c(=O)[nH]1)NNC(=O)COc1ccccc1Cl,4.24
3,Cn1c(=O)c2c(ncn2CC(=O)OCC(=O)c2ccc(Cl)cc2)n(C)c1=O,-2.98
4,Cc1ccc(S(=O)(=O)N2CCC(CN3C(=O)c4cccc5cccc(c45)C3=O)CC2)cc1,11.3
5,CC(C)N(Cc1cc2ccccc2[nH]c1=O)C(=O)c1ccco1,13
6,CCSc1nnc2ccc(-c3ccco3)nn12,3.55
7,O=C(Nc1ccc(OC(F)F)cc1)c1cc(S(=O)(=O)N2CCOCC2)ccc1F,-31.3
8,COc1ccc(-c2ccc(C#N)c(SCC(=O)Nc3sc4c(c3C#N)CCC4)n2)cc1,9.7
9,CCc1c(C)nc(SCC(=O)NNC(=O)c2ccco2)[nH]c1=O,7.22
10,Cc1sc2nc(SCC(=O)NCCOCCO)nc(N)c2c1C,20.5
11,O=C(c1ccco1)N1CCN(c2nnc(-c3ccccc3)c3ccccc23)CC1,-75.8
12,Cc1cccc(CSc2nnc(-c3cnccn3)n2C)c1,2.52
13,Cc1ccc(Cl)cc1N1CCN(C(=O)CSc2nnc3n2C(C)(C)Cc2ccccc2-3)CC1,-39
14,CN(C)c1ccc(C(=O)c2ccc(N(C)C)cc2)cc1,-20.5
15,COc1ccc(/C=C/C(=O)OCn2c(SC)nnc(C)c2=O)cc1OC,-18.1
16,Cc1ccc2oc(C(=O)N3CCC(N4CCSCC4)CC3)c(C)c2c1,-30.6
17,Cc1ccccc1OCCNC(=S)Nc1ccccc1,15.6
18,COc1cccc(C(=O)NC2CCN(CC(=O)Nc3nccs3)CC2)c1,1.18
19,Cc1ccc2nsnc2c1NC(=O)COc1ccccc1,11.3
20,COc1cccc2c(=O)c3c(cnn3C)n(C)c12,8.81
21,Oc1ccc(-c2csc(-c3c[nH]c4ccccc34)n2)c(O)c1,5.01
22,O=C(Nc1ccc(CN2CCOCC2)cc1)c1ccc(F)cc1,-16.8
23,COc1ccc(NC(=O)/C=C/c2ccccc2)c([N+](=O)[O-])c1,4.69

row,SMILES,"hERG current change (%, negative = inhibition) at 10uM [%]"
1,COc1cccc(CNC(=O)CCCc2cn(C)c3ccccc23)c1,-17.4
2,O=C(COc1ccc(-c2ccccc2)cc1)N1CCN(C(=O)c2cccnc2)CC1,-57.9
3,N/C(=N/[N+](=O)[O-])N1CCN(C(=O)Oc2ccc([N+](=O)[O-])cc2)CC1,-36.5
4,CCn1c(NC(=O)c2ccc(F)cc2)c2ccccc2nc1=O,-11.7
5,Cc1ccccc1-n1cc[nH]c1=S,31.8
6,CCOc1ccc(S(=O)(=O)NCCC(=O)NCC2COc3ccccc3O2)cc1 (centres unmarked),-29.5
7,c1ccc(CSc2nnc(-c3ccco3)n2Cc2ccco2)cc1,-34.6
8,Brc1cccc(/C=N/Nc2nc(N3CCCCC3)nc(N3CCCCC3)n2)c1,19
9,CC1=N/C(=C/c2cc(Br)cc(Br)c2O)C(=O)O1,17
10,O=C(CCc1ccccc1)NCc1ccccc1,-8.04
11,COc1cccc(N2CCN(CC(=O)Nc3nnc(-c4ccccc4)s3)CC2)c1,-19.1
12,COC(=O)CSc1ncnc2c(C)csc12,3.11
13,Cn1c2ccccc2c2c(C(=O)N3CCC4(CC3)OCCO4)cn(C3CCCC3)c(=O)c21,-15.1
14,CN(Cc1ccccc1)c1nc(N)c([N+](=O)[O-])c(Nc2cccc(F)c2)n1,-11.9
15,COc1cc(COCC(O)CN2CCN(Cc3ccc4c(c3)OCO4)CC2)cc(OC)c1OC.Cl (centres unmarked),-0.319
16,O=C(CNC(=O)c1ccco1)OC(C(=O)c1ccccc1)c1ccccc1 (centres unmarked),0.438
17,O=C(NC1CC2CCCC(C1)N2C(=O)Nc1ccccc1Cl)C1CC1 (centres unmarked),28.8
18,CC(=O)c1cc(N2CCC(C(=O)O)CC2)ccc1[N+](=O)[O-],11.2
19,Nc1c(C(=O)NCCc2ccc(Cl)cc2)sc2ccc(S(=O)(=O)N3CCCCC3)cc12,17.8
20,COc1ccccc1OCCNC(=O)CCNC(=O)c1ccccc1OC,13.2
21,COc1cc2c(cc1OC)[C@@H]1Cc3ccc(OC)c(OC)c3CN1CC2.Cl,1.19
22,CCOC(=O)C1(Cc2ccc(OC)cc2)CCN(C(=O)CC2CCC(=O)N2)CC1 (centres unmarked),10.2
23,Cc1ccc(-c2cc(C(=O)NCc3ccco3)no2)cc1,17.2

row,SMILES,"hERG current change (%, negative = inhibition) at 10uM [%]"
1,CCOC(=O)c1c2n(c3ccc(OC(C)=O)cc13)CCC2,-11.1
2,COc1ccc(S(=O)(=O)Nc2ccc(F)cc2)cc1N(C)S(=O)(=O)c1ccc(Cl)cc1,3.39
3,COc1ccc(NC(=O)c2cc(C3CC3)nc3c2cnn3C(C)C)cc1OC,-6.44
4,Cc1oc(-c2cc(F)ccc2F)nc1CN1CCN(C)C(=O)[C@@H]1C,8.32
5,Cl.O=c1c2[nH]c3ccc(F)cc3c2ncn1C1CCCCC1,29
6,O=C(Nc1ccccc1C(=O)O)c1cccc(F)c1,4.67
7,CCCC(c1nnnn1C(C)(C)CC)N(CCCO)Cc1cc2cc(C)cc(C)c2[nH]c1=O (centres unmarked),-37.7
8,COc1ccc(N(Cc2cc(=O)[nH]c3ccccc23)C(=O)c2ccco2)cc1,-30
9,CCc1ccc(C(=O)CN2C(=O)NC(C)(c3ccc(C)cc3)C2=O)cc1 (centres unmarked),8.2
10,CC(C)Cc1cc(C(=O)Nc2cccnc2)no1,-29.7
11,O=C(/C=C/c1ccccc1F)c1ccoc1,-8.68
12,O=S(=O)(NCc1ccccn1)c1cc(Cl)ccc1Cl,8.35
13,COc1ccc(C(CNC(=O)CNS(=O)(=O)c2ccc(NC(C)=O)cc2)N2CCOCC2)cc1 (centres unmarked),3.95
14,CCOC(=O)Cc1nn(Cc2ccc(Cl)cc2)c(=O)c2ccccc12,5.17
15,Cc1ccc(S(=O)(=O)N/N=C2/CCCCC2C2CCCCC2)cc1[N+](=O)[O-] (centres unmarked),-5.07
16,Cc1ccccc1-c1nc2sc3c(c2c(=O)o1)CCC3,9.93
17,O=C(NCC(=O)N(c1cnc2ccccc2c1)C(C(=O)NC1CCCC1)c1ccncc1)c1ccco1 (centres unmarked),8.74
18,O=C(CN(Cc1ccccc1)C(=O)CCC(=O)Nc1nccs1)NCc1ccc(F)cc1,-1.38
19,CCOC(=O)[C@H]1[C@H]2COc3ccc(OC)cc3[C@@H]2N2C(=O)c3cc(F)c(F)cc3NC(=O)[C@@]12C,-11.6
20,CC(=O)Oc1ccc2c(C)cc(=O)[nH]c2c1,19.1
